Source: the supplement of paper PMC8285479
Where a name gives a salt, the structure may show the parent alone. ± gives the standard deviation of the averaged measurements. Over roughly 1,900 compounds, “normalised cell viability (NPI; 0 = phenylarsine oxide control, 1 = DMSO control)” has its median near 1; the lowest 2% begin near 0.039. The list shows a part of the results.

System: NCI-H1944
Assay: normalised cell viability (NPI; 0 = phenylarsine oxide control, 1 = DMSO control) (fraction of DMSO control); NCI-H1944 is a non-small cell lung cancer line; higher = more viable cells (less compound toxicity)
Conditions: 6 days
[1] = glucocorticoid arm: hydrocortisone 2.75 uM co-treatment, compound 1 µM
[2] = glucocorticoid arm: hydrocortisone 2.75 uM co-treatment, compound 5 µM
[3] = glucocorticoid arm: hydrocortisone 2.75 uM pre-treated 2 days and continued, compound 1 µM
[4] = glucocorticoid arm: hydrocortisone 2.75 uM pre-treated 2 days and continued, compound 5 µM
[5] = glucocorticoid arm: vehicle, compound 1 µM
[6] = glucocorticoid arm: vehicle, compound 5 µM
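Further: CTB read-out in 384-well plates, mean of triplicate wells, normalised per plate against 1 µM phenylarsine oxide and 0.1% DMSO, compounds added 24 h after seeding.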

SMILES	normalised cell viability [1]	normalised cell viability [2]	normalised cell viability [3]	normalised cell viability [4]	normalised cell viability [5]	normalised cell viability [6]
OC[C@H]1O[C@@H](n2cnc3c(N[C@H]4CCC[C@@H]4O)ncnc32)[C@H](O)[C@@H]1O	1.017 ± 0.0058	1.01 ± 0.027	1.01 ± 0.01	1.01	0.993 ± 0.015	0.9927 ± 0.0095
COC1(C2=NCCN2)COc2ccccc2O1 (stereo unspecified)	0.9913 ± 0.0035	1 ± 0.018	1.01 ± 0.029	0.994 ± 0.017	0.9827 ± 0.0021	0.9817 ± 0.0067
N[C@@H](Cc1c[nH]c2ccccc12)C(=O)O [L-Tryptophan]	1.01	1.027 ± 0.0058	1.03 ± 0.032	1.033 ± 0.0058	0.999 ± 0.001	1.003 ± 0.0058
Nc1cc(=O)[nH]c(N)n1 [2,4-Diamino-6-hydroxypyrimidine]	1.007 ± 0.0058	1.01 ± 0.029	0.9987 ± 0.0023	0.994 ± 0.014	0.988 ± 0.0017	0.992 ± 0.005
O=C(/C=C/c1ccc(O)cc1)c1ccc(O)cc1O [Isoliquiritigenin]	0.997 ± 0.0044	1.06 ± 0.05	1 ± 0.01	1.06 ± 0.09	1.01	1.017 ± 0.0058
CS(=O)(=O)OCCCCOS(C)(=O)=O [Busulfan]	1.02 ± 0.02	1.01 ± 0.026	1.013 ± 0.0058	1.033 ± 0.0058	1.003 ± 0.0064	0.989 ± 0.014
CC[C@@H]1C(=O)OC[C@@H]1Cc1cncn1C [(+)-Pilocarpine hydrochloride]	1.01 ± 0.013	1.02 ± 0.018	1.01 ± 0.011	0.862 ± 0.28	1.003 ± 0.0058	1.02 ± 0.021
CC[C@@H]1C(=O)OC[C@@H]1Cc1cncn1C [Pilocarpine nitrate]	1.013 ± 0.0058	1.01 ± 0.025	0.985 ± 0.01	1.01 ± 0.044	1	1.02 ± 0.015
CN1CCc2c(c3ccccc3n2Cc2ccc(C(=O)NO)cc2)C1 [Tubastatin A HCl]	0.9623 ± 0.0086	0.859 ± 0.016	0.967 ± 0.0035	0.913 ± 0.025	0.999 ± 0.01	0.9903 ± 0.0042
CN1CCc2c(c3ccccc3n2Cc2ccc(C(=O)NO)cc2)C1 [Tubastatin A]	0.984 ± 0.013	0.983 ± 0.026	0.983 ± 0.023	1.01 ± 0.023	0.991 ± 0.011	0.9927 ± 0.0063
CN1C(=O)CC[C@H]1c1cccnc1 [(-)-Cotinine]	0.995 ± 0.018	1.02 ± 0.01	1 ± 0.011	1.01 ± 0.014	1.005 ± 0.0087	1.03 ± 0.044
Cc1c(CN2CCN(C(=O)[C@H](C)O)CC2)sc2c(N3CCOCC3)nc(-c3cnc(N)nc3)nc12	0.631 ± 0.017	0.433 ± 0.034	0.59 ± 0.02	0.399 ± 0.076	0.757 ± 0.035	0.552 ± 0.033
COc1cc2nccc(Oc3ccc(NC(=O)NC4CC4)c(Cl)c3)c2cc1C(N)=O [E7080 (Lenvatinib)]	0.96 ± 0.012	0.951 ± 0.031	0.945 ± 0.011	0.9333 ± 0.009	1.007 ± 0.0058	1 ± 0.016
c1nc2c(NC3CCCCC3)nc(Nc3ccc(N4CCOCC4)cc3)nc2[nH]1 [Reversine]	0.864 ± 0.027	0.508 ± 0.0076	0.92 ± 0.01	0.586 ± 0.017	0.33 ± 0.022	0.201 ± 0.022
CCn1c(=O)[nH]c2cc(Cl)c(Cl)cc21	0.9863 ± 0.0055	0.97 ± 0.02	0.972 ± 0.04	0.954 ± 0.012	0.9877 ± 0.0015	0.988 ± 0.0044
Cc1cc(NC(=O)Nc2ccc3c(ccn3C)c2)sn1	1.017 ± 0.0058	0.995 ± 0.013	1.003 ± 0.0058	1.01 ± 0.015	0.9797 ± 0.0021	0.993 ± 0.0061
